Reference: the RNAGym collection of RNA variant scans (doi:10.7554/elife.90254)
Read counts are not given, so values of variants with three or more changes are uncertain.

B1: LINE1-mini (parent)
chain: GGCAGAGCUCAACACAGCGUGGCAAAGUGGCUGUGGCUAGACUGCC

Variants of: B1
Assay: self-cleavage, relative activity (ratio to wild type); higher = more cleavage; in vitro, sequencing; the parent is a self-cleaving ribozyme
For GGCAUAGCUCAACACAGCGUGGCAAAGUCCCUUUGGCUAGACUGCC, the self-cleavage was 0.02. In the case of GGCAGAGCUGAACACAGCGUGGCAAAGAGGCUGUGGCUAUACUGCC, the self-cleavage is reported as 0. Work on GGAAGAGCUCGACACAGCGUGGCAAAGAGGCUGUGGCUAGACUGCC yielded a self-cleavage of 0.02. In the case of GGCAGAGCCCAACACAGCGUGCCAAAGUGCCUGUGGCUAGACUGCC, the self-cleavage is reported as 0.03. GGCAGAGCUCUACACAGCGUGGCAAAGUAGCCGUGGCUAGACUGCC showed a self-cleavage of 0.06. Variant GGCAGAGCUAAACAUAGCGUGGCAAAGUGGGUGUGGCUAGACUGUC has a self-cleavage of 0.02. CGCAGAGCUCAGCACAGCGUGGCAAAGUGGCAGUGGCUAGAUUGCC gave a self-cleavage of 0.01. GGAGGAGCUCAACACAGCGUGGCAAAGUGGUUAUGGCUAGACUGCC gave a self-cleavage of 0.05. Variant GGCAGAGCUCAACACAGCGGGACAAAGUGGCUGUGGCUGGACUGCC has a self-cleavage of 0.12. With UGCAGAGCUCAACACUGCGUGGCAAAGUGGCUGUGACUAGACUGUC the self-cleavage was 0. Variant GGCAAAGCUCAACACAUCGCGGCAAAGUGGCUGUGGCUAGACUGUG has a self-cleavage of 0.01. GGCAGAACUCAACACAGCGUGGCAAAGUGGUUGUGGGUAGACUGCC showed a self-cleavage of 0.01. Work on GGGAGAGAUCAACACAGCGUGGCCAAAUGGCUGUGGCUAGACUGCC yielded a self-cleavage of 0.5. Work on GGCACAGCUCAACACAGCGUGGCAAGGUUGCUGUGGCUAGACUGCC yielded a self-cleavage of 0.02. Variant AGCAGAGCUCAACUCAGCUUGUCAAGGUGGCUGUGGCGAGACUGCC has a self-cleavage of 0.04. GCCUGAGCUCAACAGAGCGUGGCAAAGUGGCUGUGGCUAGACUGCC showed a self-cleavage of 0.01. In the case of GGCAGAGCUCAACACAGCGUGGCAAAGUCGCAGUGGCUAGUCUGCC, the self-cleavage is reported as 0.44. Work on GGCAGAUCUCCACAAAGCGUGGCAAAGUGGCUGUGGCUAGACUGCC yielded a self-cleavage of 0.01. GGCAGAGCUCAACACAGUGUGGCAAAGAGGCUGUGGCUUGACUGCC gave a self-cleavage of 0.13. GGCAGAUUUCAACACAGCGUGGCAAAGUGUUUGUGGGUAGAAUGCC gave a self-cleavage of 0.07. For AGCAGAGCUCAAAACAGCGUGGCAUAGUGGCUGCGACUAGACUGCU, the self-cleavage was 0.02. Variant GGCAGAGCUCAACAGAGCGUGGCAAAGUGGAUGUGGCUAAACUGCC has a self-cleavage of 0.02. GGCAGAGCUCAACAUAGCGUGGCAAAGUGGCUUUGGCUAAACGGAC gave a self-cleavage of 0.03. CGCACAGCUCAACACAGCGUGGCAAAGUGGGUGUGGAUAGUCUGUC showed a self-cleavage of 0.01. Variant GGCAAAGAUCAGCACAGCGUGGAAAAGUGGCUGUGACUAGACUGCC has a self-cleavage of 0.38. With GGCAGAGCUCAACACAGCGUGGCAAAGUGGCAGUGGUUAGGCUGCC the self-cleavage was 0.03. GGCAGAGCUGAACACAGCCUGGCAAAGUGGCUGUGGCUAGACUCCC showed a self-cleavage of 0.03. GGCAGAGCUCAACACACCGUGCCAUAGUGGCUGUGGCUAGACUGCC gave a self-cleavage of 0.97. Variant GGCAGUGCUCAACACAGCGUGGCAAAGUGGCUGUGGCUAGAUGCCC has a self-cleavage of 0.15. GGCAAAGCUCAACACUGCCCGGCCAAGUCGCUGUGUCUAGACUGCC gave a self-cleavage of 0.03. GGCAGAGCACAACACAGCGUGGCAAAGUGGCUGUGGCUUGACUUCC gave a self-cleavage of 0.16. Variant GGCAAAGCUCAACACAGCGUGGCAAAGUGGCUGUGGCUAGUCCGCC has a self-cleavage of 0.01. AGCCUAGCUCAACACAUCGUGGCAUAAUGGCAGUGGCUAGACUGCC showed a self-cleavage of 0.18. For GGCAGAGCUCAACACAGCGUGGCAAACUGGCUAUGGCUAGACUGUC, the self-cleavage was 1.33. With GGCAGAGCUCAACACGGCGUGGCAAAGUGGCUGUGGCUAGCCUGUC the self-cleavage was 0.03. Work on GACUGAGCUCAACUCAGCGUGGCAAUGUGGCUGUGACCAAACUGUC yielded a self-cleavage of 0.06. For GGCGGAGCUCAACACAGCGUAUCAAAGUGGCUGUGGCUAGACUGGC, the self-cleavage was 0.05. GGCAGAGCUCAACACCUCGUGCCAAAGUGGCUGUGGCUAUACUGCC gave a self-cleavage of 0.02. With GGCAGGGCAGAACACAGCGCGGCUAAGUGGAUGUCGCGAGACUGCC the self-cleavage was 0. UGCAGAGCUCAACACAACGUGGCAAAGUGGCUAUGGCUAGACUGCC showed a self-cleavage of 0.01. Work on GACAGAGCUCAACACAGCGUGGCAAAGUGGCUUUGACUAGACUCCC yielded a self-cleavage of 0.07. For GGCAGAGCUCAACACAGCGAGGCAAAGUGGCUGUGGAUAGUCUGCC, the self-cleavage was 0.05. Variant GGCAUAGGGCAACACAGCGUGGCAAAGUGGCUUUGGCUAGACUGCC has a self-cleavage of 0.06. In the case of GGCAGAGCUCAACACAGCGUCGCAAACUGGCUGUGGCUGGACUGCC, the self-cleavage is reported as 0.09. Variant GGCAGAGCUAAAUACAGCGUGGCAAAGUGGCUGUGGCUAGACUGAC has a self-cleavage of 0.06. In the case of GGCAGAGCUCAAAACAGCGUGGCAAAGUGGCGGUGGAUAGACUGCC, the self-cleavage is reported as 0.02. With GGCAGCGCACAACACAGCGUGCCAAAGUGGCUGUGGCUAGACUGCC the self-cleavage was 0.18. With GGCAGAGAUCAACUCAGCGUGGCGAAGUGGCUGUGGCUAGACUGCC the self-cleavage was 0.05. With GGCAGCGCUCAACGCAGCGUCGCAAAGUGGUUGUGGCUAGACUGCC the self-cleavage was 0.03. GGCAGACCUCAGCACAGCGUGGCAAAUUGGCUGUGGCUAGACUGCC showed a self-cleavage of 0.02. Variant GCCAGGGUUCAACGCAGCGUGCCAAAGUCGCUGUGCUUAGACUGCC has a self-cleavage of 0. With GGCAUAGCUCAACACAGCGUGGCAAGGCGGCUGUGGCUAGACUGCA the self-cleavage was 0.05. GGCAGAGGUCAACACAGCGUGGCAACGUGGCUUUGGCUAGACUGCC showed a self-cleavage of 0.02. With GGCAGAGCUCAACACAGCGUGGCACAGUGGCAGUGUAUAGACUGCC the self-cleavage was 0.03. Variant GGCAGCCCCCAACACGUCGUGGCAAAGUGGCUGUGGCUAGACUGCC has a self-cleavage of 0.04. In the case of GGCAGAGCUCAACACCGCGUUGCAAAGUGGUUGUGGCUAGACUGCC, the self-cleavage is reported as 0.
